Results as given in US10046060B2, “Co-administration of an agent linked to an internalization peptide with an anti-inflammatory” (NoNO Inc., priority 2007, dated 2018).

Test system: Beagle dogs
Experiment: Antihistamine pre-treatment before Tat-NR2B9c in dogs
Details: benadryl 1 mg/kg 30 minutes before 12.5 mg/kg Tat-NR2B9c

Compound: CN(C)CCOC(c1ccccc1)c1ccccc1 [diphenhydramine]
- Effect on angio-neurotic oedema and urticaria induced by Tat-NR2B9c: prevented the angio-neurotic oedema and urticaria reactions
- Reaction after pre-treatment (male dog): slight reddening of inner skin of the ears
